Assay results as given in the RNAGym collection of RNA variant scans (doi:10.1073/pnas.2313332121).
Variants at the background level are over-represented here.

B1: TPR 5TU (parent)
chain: GGAUCUUCUCGAUCUAACAAAAAAGACAAAUCUGCCACAAAGCUUGAGAGCAUCUUCGGAUGCAGAGGCGGCAGCCUUCGGUGGCGCGAUAGCGCCAACGUUCUCAACUAUGACACGCAAAACGCGUGCUCCGUUGAAUGGAGUUUAUCAUG

Variants of: B1
Experiment: polymerase ribozyme fitness, log enrichment relative to wild type (log ratio); higher = more active; in vitro selection for triplet polymerase activity
Outline: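 Both subunits of a heterodimeric triplet polymerase ribozyme were given their own mutant library, built by PCR and transcribed. Each library was annealed with a biotinylated primer, the partner subunit and triplets, incubated frozen at −7 °C, and its extended constructs gel-excised, captured on streptavidin beads and amplified by RT-PCR, all in one round done in triplicate. Fitness is the logarithm of genotype enrichment relative to wild-type enrichment, with replicates averaged by inverse-variance weighting. That logarithm is base 2, and Illumina-sequenced genotypes needed ≥10 input reads and ≥1 read per output.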
For GGAUCUUCUCGAUCUAACAAAAAAGACAAAUCUGCCACAAAGCUUGAGAGCAUCUUCGGAUGCAGAGGGGCCAGCCUUCGGUGGCGCGAUAGCGCCAACGUUCUCAACUAUGACACGCAAUACGCGUGCUCCUUUGAAUGGAGUUUAUUAUG [C69G G71C A121U G133U C149U], the “polymerase ribozyme fitness (log ratio)” value was at most -4.2.
For GGAUCUUCUCGAUCUAACAAAAAAGACAAAUCUGCCACAAAGCUUGAGAGCAUCUUCGGAUGCAGAGGUGGCAGCCUUCGGUGGAGCGAUAGCGCCAACGUUCUCAACUAUGACACGCAAAACGCGUGCUCCGUUGAAUGGAGUUUAUCAUG [C69U C85A], the “polymerase ribozyme fitness (log ratio)” value was -3.16.
For GGAUCUUCUCGAUCUAACAAAAAAGACAAAUCUGCCACAAAGCUUGAGAGCAUCUUCGGAUGCAGAGGGGGCAGCCUUCGGUGGCGCAAGAGCGCCAACGUUCUCAACUAUGACACGCAAAACGCGUGCUCCGUUGAAUGGAGUUAAUCAUG [C69G G88A U90G U146A], the “polymerase ribozyme fitness (log ratio)” value was at most -4.2.
With GGAUCUUCUCGAUCUAACAAAAAAGACAAAUCUGCCACAAAGCUUGAGAGCAUCUUCGGAUGCAGAGGGGGCAGCCUUCGGUGGCGCGAUAGCGCCAACGUUCUCAACUAUGACACGCAAAACGCUUGCUACGUUGAAUGGAGUUUAUCAUG [C69G G126U C131A] the “polymerase ribozyme fitness (log ratio)” value was at most -4.2.
With GGAUCUUCUCGAUCUAACAAAAAAGACAAAUCUGCCACAAAGCUUGAGAGCAUCUUCGGAUGCAGAGGUGGCAUCCUUCGGUGGCGCGAUAGUGCCAACGUUUUCAACUAUGACACGCAAAACGCGUGCUCCGUUGAAUGGAAUUUAUCAUG [C69U G74U C93U C103U G143A] the “polymerase ribozyme fitness (log ratio)” value was at most -4.2.
For GGAUCUUCUCGAUCUAACAAAAAAGACAAAUCUGCCACAAAGCUUGAGAGCAUCUUCGGAUGCAGAGGUGGCAGGCUUCGGUGGCGCGACAGCUCCAACGUCCUCAACUAUGACACGCAAAACGCGUGCUCCGUUGGAUGGAGUUUAUCAUG [C69U C75G U90C G94U U102C A137G], the “polymerase ribozyme fitness (log ratio)” value was at most -4.2.
In the case of GGAUCUUCUCGAUCUAACAAAAAAGACAAAUCUGCCACAAAGCUUGAGAGCAUCUUCGGAUGCAGAGGUGGAAGCCUUCGGUGGCGCGAUAGCGCCAACGUUCUCAACUAUGACACGCGAAACGCGUGCUCCGUUGGAUGGAGUUUAUCAUG [C69U C72A A119G A137G], the “polymerase ribozyme fitness (log ratio)” value is reported as at most -4.2.
With GGAUCUUCUCGAUCUAACAAAAAAGACAAAUCUGCCACAAAGCUUGAGAGCAUCUUCGGAUGCAGAGGUGGCAGCGUUCGGUGGCGCGAUAGCGCCGACGUUCUCAACUAUGACACGCAAAACGCGUGCUCCGUUGAAUGGAGCUUAUAAUA [C69U C76G A97G U144C C149A G152A] the “polymerase ribozyme fitness (log ratio)” value was at most -4.2.
For GGAUCUUCUCGAUCUAACAAAAAAGACAAAUCUGCCACAAAGCUUGAGAGCAUCUUCGGAUGCAGAGGUGGCGGCCUUCGGUCGCGCGAUAGCGCCAACGUUCUCAACUAUGACACGCAAAACGCGUGCUCCGUUGAAUGGAGUUUAUCAUG [C69U A73G G83C], the “polymerase ribozyme fitness (log ratio)” value was -3.38.
With GGAUCUUCUCGAUCUAACAAAAAAGACAAAUCUGCCACAAAGCUUGAGAGCAUCUUCGGAUGCAGAGGUGGCAGCCUUCGGUGCCGCGAUAGCGCCAACGUUCUCAACUAUGACACGCAAAACGCGUGCUCGGUUGAAUGGAAUUUAUCAUG [C69U G84C C132G G143A] the “polymerase ribozyme fitness (log ratio)” value was at most -4.2.
For GGAUCUUCUCGAUCUAACAAAAAAGACAAAUCUGCCACAAAGCUUGAGAGCAUCUUCGGAUGCAGAGGUGGCAGCCUUCGGUGGCGCGAUAGCGCCAACAUUCUCAACUAUGACACGCAAAACGCGUGCUCCGUUGCAUGGAGUUUAUCAUG [C69U G100A A137C], the “polymerase ribozyme fitness (log ratio)” value was at most -4.2.
In the case of GGAUCUUCUCGAUCUAACAAAAAAGACAAAUCUGCCACAAAGCUUGAGAGCAUCUUCGGAUGCAGAGGUGGCAGCCUUCGGUGGCGCGAUAGCGCCAACGUUCUCUACCAUGACACGCAAAUCGUGUGCUCCGUUGAAUGGAGUUUAUCAUG [C69U A106U U109C A122U C125U], the “polymerase ribozyme fitness (log ratio)” value is reported as at most -4.2.
In the case of GGAUCUUCUCGAUCUAACAAAAAAGACAAAUCUGCCACAAAGCUUGAGAGCAUCUUCGGAUGCAGAGGUCGCAGCCUUCGGUGGCGCGAUAGGGCCAACGUUCUCAACUAUGAAACGCAAAACGCGUGCUCCGUUGAAUGGAGUUUAUCCUG [C69U G70C C93G C114A A150C], the “polymerase ribozyme fitness (log ratio)” value is reported as at most -4.2.
In the case of GGAUCUUCUCGAUCUAACAAAAAAGACAAAUCUGCCACAAAGCUUGAGAGCAUCUUCGGAUGCAGAGGUGGCAGCCUUCGGUAGCGCAAUAGCGCCAACGUUCUCAACUAUGUCACGCAAAACGCGUGCUCCGUUGAAUGCAGUUUAUCAUG [C69U G83A G88A A113U G141C], the “polymerase ribozyme fitness (log ratio)” value is reported as at most -4.2.
In the case of GGAUCUUCUCGAUCUAACAAAAAAGACAAAUCUGCCACAAAGCUUGAGAGCAUCUUCGGAUGCAGAGGUGGCAGCCUUCGGUGGCGCGAUAGCGCCAACGUUCUCAACUAUGACACGCAAAACGCGUGCUCCGUUAAAUGGUGUUUAUCAUG [C69U G136A A142U], the “polymerase ribozyme fitness (log ratio)” value is reported as -0.531.
For GGAUCUUCUCGAUCUAACAAAAAAGACAAAUCUGCCACAAAGCUUGAGAGCAUCUUCGGAUGCAGAGGUGGCAGCCUUCGGUGGCGCGAUAGCGCCAACGUUCUCAAUGAUGACACGCAAUACGCGUGCUCCGUUGAAUGGAGUUUAUCAUG [C69U C108U U109G A121U], the “polymerase ribozyme fitness (log ratio)” value was at most -4.2.
In the case of GGAUCUUCUCGAUCUAACAAAAAAGACAAAUCUGCCACAAAGCUUGAGAGCAUCUUCGGAUGCAGAGGUGGCAGCCUUCGGUGGCGCGAUAGCGUCAACGUUCUCAACUAUGACACGCAAAACGCGUGCUCCGUUGAAUGGAGUUUAUCAUG [C69U C95U], the “polymerase ribozyme fitness (log ratio)” value is reported as -1.47.
In the case of GGAUCUUCUCGAUCUAACAAAAAAGACAAAUCUGCCACAAAGCUUGAGAGCAUCUUCGGAUGCAGAGGUGGCAGUCUUCGGUGGCGCGAUAACGCCAACGUUCGCAACUAUGACACGCAAAACGCGUGCUCCUUUGAAUGGAGUUUAUUAUG [C69U C75U G92A U104G G133U C149U], the “polymerase ribozyme fitness (log ratio)” value is reported as at most -4.2.
With GGAUCUUCUCGAUCUAACAAAAAAGACAAAUCUGCCACAAAGCUUGAGAGCAUCUUCGGAUGCAGAGGUGGCAGCCUUCGGUGGCGAGAUAGCGCCAACGUUCUCAACUAUGACACGCAAAACGCGUGCUCCGUUGAAUGUAAUUUAUCAUG [C69U C87A G141U G143A] the “polymerase ribozyme fitness (log ratio)” value was at most -4.2.
